Reference: the supplement of paper PMC11417369
± gives the standard deviation of the averaged measurements. This is one part of the list.

Tested on: PfAP2-EXP AP2 domain (GST-tagged)
Assay: gcPBM binding intensity (ln(normalized median fluorescence intensity)); higher = stronger DNA binding
In short: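 GST-fused DNA-binding domains of P. falciparum, expressed in E. coli, were applied at about 25 μg on average for 1 h to an Agilent 4 × 180k array of primer-extended double-stranded 36-bp intergenic genomic probes and negative controls. Binding intensity is the highest Masliner-normalised natural-log median intensity across replicate spots of either probe orientation, measured with Alexa488 anti-GST antibody and a 488 nm scan.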

Sequence	gcPBM binding intensity (ln)
TATTAATTTCACCTTTCACATATGGAAAAAAAAAAA [CACACA_negctrl_site1243]	8.71 ± 0.61
CAAAATATTTATATCACACATATAAATAAAAATAAA [CACACA_site6028]	8.55 ± 0.42
ATTAACATTTTCGTATGTACATATATAATATATGTT [XGTACX_site7184]	8.8 ± 0.4
TTTCCAAATACAACTACACACAAACAAAAATTATAT [CACACA_site4641]	8.74 ± 0.63
AATAAAAATAAAAATTGTACACTTTTTTAATATTTA [XGTACX_site892]	8.11 ± 0.25
ATGTTTATTTATTTATGTACTTATATATTTATATAT [XGTACX_site7924]	8.78 ± 0.34
TGTATATATTATATTTGTACATATAAAACTATATGT [XGTACX_site4782]	8.43 ± 0.26
TATCTCATAGTATACACACACACACGCGCACATATA [CACACA_site6917]	9.01 ± 0.46
TTTCGAAAAACAACAAGAAAAAAAAAAAAAAAAAAA [XGTACX_negctrl_site449]	8.01 ± 0.49
TTTTGGTGGGTTACAAGTACTCAAAATGGATTGTTA [XGTACX_site1951]	8.53 ± 0.29
AAAAAAAAAAAAAAAACATGCAATAAAGTGTGCGTA [TGCATGCA_site982]	8.68 ± 0.26
TTAAATATATGTAATACGCACACTTAATATTTTGAG [CACACA_site4170]	8.41 ± 0.37
TCACATACATTACTTACACACCATATTGATATATAC [CACACA_site6353]	8.86 ± 0.54
TAAAAAAGAAAATATATACACACCAAAAAAAAAAAA [CACACA_site3146]	8.44 ± 0.42
ATTAAATCCGCACGCACACACACATATTAATAAAAA [CACACA_site3992]	8.74 ± 0.32
ACATGTCTTAAAAGACGTACATATAAAAGAACCCTA [XGTACX_site8940]	8.6 ± 0.42
AATATTAAAGAATAATGTACAAAATAAAAGCAAAGA [XGTACX_site3550]	9.23 ± 0.42
AAACAAAAAAATTGAAATAAAATGAAGTAAATGAAC [TGCATGCA_negctrl_site129]	9.15 ± 0.23
TTATTTTTTAAAAGTAGTACAAATTTTTATAGAAAA [XGTACX_site7407]	8.48 ± 0.18
CAATATTTGTTATGGGTGCAAACCGCATATATATAA [GTGCAC_site9543]	8.76 ± 0.028
ATTCCTTGGTTGTATAGTACTTTGGTTAAACATAAA [XGTACX_site6967]	8.82 ± 0.4
AATATAATATAATGCACACATAAAAAAAAAATCAAA [CACACA_site122]	8.71 ± 0.54

Sequence	gcPBM binding intensity (ln)
TTTTTATATAACCTTCTTAATTCTTTTTTTTTTTTT [XGTACX_negctrl_site591]	8.38 ± 0.47
AAAACAAAATTATGAACATGCAAGGTAAAATTGTAA [TGCATGCA_site775]	9.12 ± 0.29
AACTTACTTGGACATACACACATATAGATTTATATA [CACACA_site7412]	8.84 ± 0.3
GTACAAATGTTGTGTATATATACACACATACATATA [XGTACX_negctrl_site276]	8.69 ± 0.33
ATGTAGTTTTATCAGTGTACAAGTATTTTATCACAT [XGTACX_site8958]	8.78 ± 0.34
TTATTTATAAATATTAATTTTTTTTTTTTTTTTTTT [XGTACX_negctrl_site105]	8.52 ± 0.26
TTTTATGTTTCAAAATGTACATTAAAATATACCATA [XGTACX_site1713]	8.29 ± 0.42
AAAATATATATATATATATATATATGTATACTCCTA [XGTACX_negctrl_site312]	8.65 ± 0.071
TTTTATTATTGAATACTAGTATATATAATATGAAGA [CACACA_negctrl_site910]	8.52 ± 0.42
ATATATATATTTTTTAAACACACACCGAAATATTTG [CACACA_site8937]	9.14 ± 0.014
TTAATTAAAACGAATACACACATAAATATATAAAAG [CACACA_site1254]	8.81 ± 0.45
CATATGCATACTATACGTACATATGTATATAATATA [XGTACX_site7738]	8.64 ± 0.31
TTTTATTTTATTCTTAAATAAGTATTATAAAATATG [XGTACX_negctrl_site201]	8.15 ± 0.24
TATAAAGCATATTAAAGTACTTATTTTCCTTTTTCT [XGTACX_site8892]	8.44 ± 0.44
TATATATATATGTGCACACATAATAAAAAAAAAAAT [CACACA_site3831]	9.9 ± 0.11
TTAATGTTGTATGGTTGTACAATAAGCCCCTTTTAA [XGTACX_site2484]	8.54 ± 0.31
TTATTTGAACAATATGCACACATTTTATTTATTTTA [CACACA_site3420]	8.61 ± 0.23
TTAAAGCTTACATATACACACATACATAAATTCATA [CACACA_site8785]	8.5 ± 0.38
TATGATGATATAAAAACACACACATATAATATAATA [CACACA_site8321]	8.63 ± 0.42
TTTTGATCATCCAAAATATCTTCATCTGAACTACTA [CACACA_negctrl_site939]	8.35 ± 0.49
GACATATTCCCCCCCACACACACACCCACATACATA [CACACA_site2302]	10.8 ± 0.11
GTAAAATAAAATATATGTACATATGTATATGAGGTA [XGTACX_site3743]	8.97 ± 0.39

Sequence	gcPBM binding intensity (ln)
ATTCAAACAAATTAATGTACATATATATAAGATATT [XGTACX_site1531]	8.56 ± 0.4
ATTTAGAAATATATTTGTACATATATATATATATAT [XGTACX_site7129]	10.2 ± 0.35
TACCCTGATCGGCATGCATGTAAGTAACAAATATAT [TGCATGCA_site153]	9.71 ± 0.35
TGTTGATAAAAAATAAAAAATAAAAAAATAAAATAT [TGCATGCA_negctrl_site559]	8.61 ± 0.56
ATATATACATATAAATGTACATAATTATTATGCACA [XGTACX_site1261]	8.77 ± 0.34
ATAAAAAGAAAAAAGGGTACACTATACTATTTAAAA [XGTACX_site4467]	8.46 ± 0.33
CTACATATTAATATATGTACATATTAATATATCTAA [XGTACX_site7118]	8.18 ± 0.24
TAAATAAGGAAGGAAACACACATTAAAAAATAAATA [CACACA_site618]	8.81 ± 0.39
AACAGAAGCACATACACACACTCAAAAAAAAAAAAA [CACACA_site5652]	8.22 ± 0.47
TTTTTAAATTATTTGAAAAAAAGAAAATTATAAACA [CACACA_negctrl_site1599]	8.29 ± 0.49
ATTTTATTCTAAAAAGGTACACATATTATTTTATGA [XGTACX_site7233]	8.19 ± 0.21
GGAAAAACCATTCGCACACACACATAATATATAATA [CACACA_site1424]	8.66 ± 0.47
ATTAATATATATGGATGTACTTATGTATGTATGCAT [XGTACX_site2263]	8.5 ± 0.28
ATAATAATATATATTACACACGCATCGTTCATTTAT [CACACA_site8752]	8.78 ± 0.51
CATGTATAATATAATACACACTATATAATATACACC [CACACA_site5267]	8.52 ± 0.3
TATTGACAAAATAGCTGTACAAATTAAAAGAAATAA [XGTACX_site4415]	8.72 ± 0.48
ATGGCCATAATATAGACACACATATATAAATATATA [CACACA_site2230]	8.39 ± 0.3
CGATATGTTCAATATTGTACTATTTATAATAATATG [XGTACX_site3051]	8.34 ± 0.28
TATTTATATGGACACACACACATATAAATAAATAAA [CACACA_site6346]	8.88 ± 0.58
TCTTACTAATATCGCACACACATATGTAGACGGGAT [CACACA_site87]	8.64 ± 0.33
TTATTGTCTTCTCATATACACACTTTTATGACTATC [CACACA_site3142]	8.94 ± 0.45
TTTAATTGATAATGAAGACAATTATATGCATCCAAA [TGCATGCA_negctrl_site138]	8.4 ± 0.36

Sequence	gcPBM binding intensity (ln)
CTTAAAAAAAAAAAATGTACACATAAAAAAAATACA [XGTACX_site6700]	8.52 ± 0.35
TAAAATATTATAAAATGTACAAAACATATAAATATA [XGTACX_site5315]	8.38 ± 0.26
TGTAGGTATTATTATACACACATAAAAAAAAAAAAA [CACACA_site3598]	8.49 ± 0.59
AAACATATATATATTATATATATATATATATATATG [GTGCAC_negctrl_site182]	8.47 ± 0.042
TAACATATAATATTCACACACATATATATATTATAT [CACACA_site988]	8.69 ± 0.47
AAATTAAAAAGACATTCACACATTTTCATCTTAACA [CACACA_site5221]	8.34 ± 0.43
TATTATTATCTTACCACACACAATGTACGAAAAGAT [CACACA_site352]	8.61 ± 0.3
TATATTTTCTATAGGTGTACTCCACATGCGGTGTTA [XGTACX_site7471]	8.67 ± 0.42
ATATTGATACATCCAATACACACTACATATAATGAT [CACACA_site1874]	8.52 ± 0.29
AAACATCTTTACAACGTCCCTCCTTTTTTATGTACC [GTGCAC_negctrl_site528]	8.76 ± 0.54
ATATATGATGTAAAAGCACACATATATATATATATA [CACACA_site9330]	10.1 ± 0.25
TCCCTCTTTTTATTCTCACACACGTTTATATATAAA [CACACA_site1644]	9.14 ± 0.49
AATATATATAAATATTGTACAAAAATATATATATAT [XGTACX_site2910]	9.7 ± 0.3
TATATAAACATATAAACATGCAATATATATATGTTA [TGCATGCA_site765]	8.43 ± 0.2
AAAAAAATTAAATCAAGTACTCATTCTTAAATTATA [XGTACX_site1274]	8.01 ± 0.28
GGAAAAAAACTTATGAGTACACATAAATATAGCACA [XGTACX_site6686]	9.14 ± 0.11
AAAAATATATAACAAAGTACATATATATTTAGTAAT [XGTACX_site8791]	8.35 ± 0.38
TGTATGAAATATATTACACACATATATAATATATAT [CACACA_site793]	8.36 ± 0.3
GTGTAAATAAGGATATATAACAATCAACAAAACATA [CACACA_negctrl_site1759]	8.83 ± 0.54
ATACACAAAATTATTAAATCAATAAATATATGGTTT [CACACA_negctrl_site353]	8.07 ± 0.47
ATATTTTTCAAACATCGTACATTATGAGTTAAAATT [XGTACX_site584]	8.38 ± 0.33
